# From paper PMC12136788
# The list shows a part of the results.
# T1: UNK ZnF1-3 (human, UniProt Q9C0B0 31-174)
# T1 sequence: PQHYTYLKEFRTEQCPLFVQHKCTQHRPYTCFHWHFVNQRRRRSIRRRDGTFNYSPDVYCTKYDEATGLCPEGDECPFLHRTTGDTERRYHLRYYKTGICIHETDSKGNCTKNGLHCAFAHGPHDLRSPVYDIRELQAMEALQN
# B1: 18865001_18865121_5024_CDS_ENSG00000157106_ENST00000446231|human|control|control (ssRNA)
# RNA: GGGAGUUCUACAGUCCGACGAUCACCUGUGAAGUUCUGUUGGUGCUGAGCUCUGUAAACCUGUUUCAGCUGUCCUGAAAUCUCUUUCCAUUCUGCCUGGAUCCAUUUAGCCAGUGUCAGAAUUGAUUUAGCAACUGCAUAUUCCAACAGAGGAUUGAGCAUCA
# B2: 76776367_76776973_7253_CDS_ENSG00000085224_ENST00000373344|human|control|control (ssRNA)
# RNA: GGGAGUUCUACAGUCCGACGAUCCUCUGAGAGAUUCAUGUUCUCCUUCCAUACAGCUGAAAUUAUAUCCUCAAGAGGUUGAAUCCUCACUGCUGUCACACUGUUUGUUGCUUCUACAACUUUUUCUCUUCCUUGAUUAAUGAGCAACAGAGGAUUGAGCAUCA
# B3: 11812662_11815180_1692_CDS_ENSMUSG00000031511_ENSMUST00000110909|mouse|control|control (ssRNA)
# RNA: GGGAGUUCUACAGUCCGACGAUCAAUCCGCUCGAUCAUGCUCCCUGAUAUCUCAAAUGCAUUCCUAUGGUUUUCACUGUCCUCAAGCUUUGUGAUUGUCAUUCCUGUUGUUGGCAGCUUCCCCUGAUAGAUGAAACCACUCAUCAACAGAGGAUUGAGCAUCA
# B4: 30809697_30809817_731_ncRNA_ENSMUSG00000026848_ENSMUST00000133544|mouse|control|control (ssRNA)
# RNA: GGGAGUUCUACAGUCCGACGAUCACACCAAAGCCAGCCUGGACUACACGAUGAGGCACUGUCUCAGAAAGUAUAAAUAAAGAGAGGCUAGGCAUUUAAUCCCAGCCUUUGGAGGGCAGAGGUAGGUAGAUCUCUGUGAGUUCCCAACAGAGGAUUGAGCAUCA
# B5: chr3:95749504:95749505:+_ENSMUSG00000015749_ENSMUST00000165307|mus_hu|FALSE|FALSE (ssRNA)
# RNA: GGGAGUUCUACAGUCCGACGAUCUAUUAUAGCAAACUGUAAUUUCAGUUAAUUUAUAAAUAAGGAAUGAAAUGCACCAUACUACACCUGUGUAAAAGUGAUCAUGUUUUAAUUAUGGGCUAAAAAUGACUAAUACAGUAAGCUCAACAGAGGAUUGAGCAUCA
# B6: chr12:98992399:98992400:+_ENSG00000075415_ENST00000552981|hu_mus|FALSE|FALSE (ssRNA)
# RNA: GGGAGUUCUACAGUCCGACGAUCUUUGGGAACAGCUUCCCUCAAGGUGUUGGCAUAACCAGGCUGGGUUUGAAUUCGAACUUUAGCAGCUUCCAUAGGAGCCAGGGCAAUGUCAGCGAAGAAUUCAGCACUGGCAGAAGAAGCCAACAGAGGAUUGAGCAUCA
# B7: chr2:49629323:49629324:+_ENSMUSG00000026764_ENSMUST00000028102|mus_hu|motif|central (ssRNA)
# RNA: GGGAGUUCUACAGUCCGACGAUCCAUUAUAUAUUUUAGUUCCCAGACAUAAAUCUUGAUAUCUCAAACAACAUUCUCCGGAUUUACCAAUCCACCAUCCUGCAGAUAAAGAUUAUUCAUAUAAACCAUCUGGCUGUUCUCUUACAACAGAGGAUUGAGCAUCA
# B8: chr17:65740002:65740003:+_ENSG00000130935_ENST00000581375|hu_hu|hu_hu_hu_mus_False|58_68 (ssRNA)
# RNA: GGGAGUUCUACAGUCCGACGAUCAACAAAUCUUUCUUCCCUGGACGAACAGGAAGAUUCAUAUUAACUUUAUAAAAUGUCUAUGAAGUUAGGUGUGGUGGCCACACCUUUACUCCCAGCACUUUGGGAGGUGGAUCUCUGAGUCAACAGAGGAUUGAGCAUCA
# B9: chr18:52893488:52893489:-_ENSG00000196628_ENST00000354452|hu_hu|hu_hu_hu_mus_True|8_18 (ssRNA)
# RNA: GGGAGUUCUACAGUCCGACGAUCUAUUUAGACCAUUUCCGCGGAGUUAUGGCAUUUACUCAGUGCUGAUAGGUGGAAAAACUACUUCAACAGGGAUUUUUUUUUUCCUUAAUACAUGCCAAGAAUUGUGUGGCUGUAAAACAGCAACAGAGGAUUGAGCAUCA
# B10: chr17:60770872:60770873:+_ENSG00000011028_ENST00000303375|hu_hu|hu_hu_hu_mus_True|28_38 (ssRNA)
# RNA: GGGAGUUCUACAGUCCGACGAUCUCUUUAAAAAAAAAAAAAAAAAGACAAACAAUAAUAGCACAUUUCGAGAAUCAAGAACUACAAUAGAGGGUCCAUGUCUUCGAGUCCAUGUUCUCGUCCUGCACUGGGACACGGGGACUGCAACAGAGGAUUGAGCAUCA
# B11: 26281015_26281314_5479_CDS_ENSMUSG00000026924_ENSMUST00000091252|mouse|control|control (ssRNA)
# RNA: GGGAGUUCUACAGUCCGACGAUCGACAAGUUUUGUAGUUUUCUUUGUAUAAACCCCAAAUCCAACCUGGGCCAUCAGGUAGCAGAAGUGUGCAGCAUCCAACAGGCCUUUUGAUGCUAGAGUAUCACCCAUCGUAGCCAUGGUCAACAGAGGAUUGAGCAUCA
# B12: 112566153_112598757_504_CDS_ENSMUSG00000021754_ENSMUST00000109267|mouse|control|control (ssRNA)
# RNA: GGGAGUUCUACAGUCCGACGAUCGAUCAUUCUCUCCUCCGGGCGAUCCUCCAUCUUGUGCAGUCCUUUGAGGGUUUCUUUAUUCUCCAUCUCUCGACCGGAGGGGGCCGCUGCAGAGGGCGGCUCGGCCCCCGCGGGGCUCCGCAACAGAGGAUUGAGCAUCA
# B13: chrX:119387588:119387589:+_ENSG00000177485_ENST00000326624|hu_hu|FALSE|FALSE (ssRNA)
# RNA: GGGAGUUCUACAGUCCGACGAUCUGAGAUGCUUUUAACCUGUGACAAUGGGACACCAAGCUCUGCUAUAAAUUUCACUCCUAAUAACUGCCCUGAUUUAAUUAACUCAUCAAGCAAAUCUGAUCUAACACGAACAAUUUUAGACAACAGAGGAUUGAGCAUCA
# B14: chr5:54693298:54693299:+_ENSG00000039123_ENST00000230640|hu_hu|FALSE|FALSE (ssRNA)
# RNA: GGGAGUUCUACAGUCCGACGAUCUUUUAAAACACUCUGUCUAUUGUCCACCGGCCGAAGGUCUUUAGGAAUGUAAAGCCUAACACUGCUGAUAGCAGACAGGAGAUGCACCAAAACUGGGACAACCUGCAUCUCUCCUUUCUCCAACAGAGGAUUGAGCAUCA
# B15: chr10:98487791:98487792:+_ENSMUSG00000019943_ENSMUST00000020107|mus_hu|FALSE|FALSE (ssRNA)
# RNA: GGGAGUUCUACAGUCCGACGAUCUCAUGCAGCACAUUAAUGGCAAAACCAAGACUAGAAACCAGGUCUUGACUCCUAGUCUAAUAUGCUUUCCAGCAUAUCAUGCUACCUCUUUUUUACAGUAUGAUUCACUAUAAAUACCUGCAACAGAGGAUUGAGCAUCA
# B16: chr19:29101771:29101772:-_ENSMUSG00000024782_ENSMUST00000025696|mus_mus|FALSE|FALSE (ssRNA)
# RNA: GGGAGUUCUACAGUCCGACGAUCAGCAGUAAGGCGCUGUUUAAUGACCUCAAAGGGCACGUUGAGAUUUAUCACUGUGUCUAUCUGAUAAACUUUAUCCAGGGCUUCUGCCUGUGGAAGUGUCCUUGGAAAUCCAUCCAACAGCAACAGAGGAUUGAGCAUCA
# B17: chr7:141450121:141450122:+_ENSG00000106028_ENST00000265304|hu_mus|hu_hu_hu_mus_True|18_108 (ssRNA)
# RNA: GGGAGUUCUACAGUCCGACGAUCUCAUCCUUUCUACGCCUUUUCUUUUGUCUGGUCACUCAGAAAUAUAAUGUUAUCAGCUAUGAUUGUUGUUGCUUGCCGCCUCACAUUGUUUUUAUCCAUGUAUUCGCCAUAGUCCACUUUCAACAGAGGAUUGAGCAUCA
# B18: chr6:53156713:53156714:-_ENSG00000012660_ENST00000304434|hu_hu|motif|central (ssRNA)
# RNA: GGGAGUUCUACAGUCCGACGAUCGACAGAGCAGAUAAAUGUGGGUAUAUAAUUGUCCAGAAGAAACCAUCCUUUUACUCGGGUAUCUCGAGGGCCUAGCAAUGCCUUGAAAUAGGUACUAAGUGAUGCAUCAAAAUGUUCCAUCAACAGAGGAUUGAGCAUCA
# B19: chr3:120123814:120123815:-_ENSG00000163430_ENST00000295633|hu_hu|FALSE|FALSE (ssRNA)
# RNA: GGGAGUUCUACAGUCCGACGAUCCUGUUCCACAAACUUCAGGAAUUCACUGGAGUCCAGGCGAGAAUCACCAUUAUCAAAGUUCUUAAAAUACUUGUCUAGGAUUUCACUGUAGUUGCUGCCUUUAGAGAACCAGCCAUCUGGCAACAGAGGAUUGAGCAUCA
# B20: chr2:166753246:166753247:+_ENSMUSG00000002718_ENSMUST00000002790|mus_mus|FALSE|FALSE (ssRNA)
# RNA: GGGAGUUCUACAGUCCGACGAUCAAACAGAUUCUUAUAAUGUGGCCUUUCACAAACUGAAGCCAGAAACUGAAUUGCAUUGCUAACCAACAAGUCAUAUUUAACUUCUCGCCCUGUUGUAACGAGUAAGUUCCAGAUAGCUGUCAACAGAGGAUUGAGCAUCA
# B21: 32528459_32528579_1835_CDS_ENSMUSG00000014496_ENSMUST00000014640|mouse|control|control (ssRNA)
# RNA: GGGAGUUCUACAGUCCGACGAUCUACGAGGAUUGAAGCUCCCUGAUUAAUGAGUACAUCCACACAUUCAACAUGGCCCUUAAAGGCUGCAAGAUCUAAGGGUGUUCUACCACUACUAUUUCUUACAUCAAGAUCUAACAAAGACAACAGAGGAUUGAGCAUCA
# B22: chr2:198266515:198266516:-_ENSG00000115524_ENST00000335508|hu_hu|FALSE|FALSE (ssRNA)
# RNA: GGGAGUUCUACAGUCCGACGAUCUUUCAUUUCCUCAUCAGGAGACUGGAAUUCUCGAAUAAGGAUUAACAUCACUUCUCUAGUAUAGUAGUUGGCAUAUUCUGCAUCCAUAAGAGGAAUAAGAUACCCAAUAGCCUUCAAGAACAACAGAGGAUUGAGCAUCA
# Molecular target: T1, UNK ZnF1-3
# Test: nsRBNS (natural sequence RNA bind-n-seq); RBNS binding buffer (assumed for nsRBNS): 25 mM Tris pH 7.5, 150 mM KCl, 3 mM MgCl2, 0.01% Triton X-100, 500 ug/ml BSA, 20 U/ml SUPERase-In, 4 C; UNK is unkempt and MSI1 is Musashi-1; names of the RNAs are library labels; protein concentration not given here; high values mean tight binding
row,Binder,binding signal
1,B1,0.623 enrichment R
2,B2,0.527 enrichment R
3,B3,0.485 enrichment R
4,B4,1.46 enrichment R
5,B5,1.41 enrichment R
6,B6,1.44 enrichment R
7,B7,1.08 enrichment R
8,B8,0.662 enrichment R
9,B9,1.05 enrichment R
10,B10,2.38 enrichment R
11,B11,1.03 enrichment R
12,B12,0.82 enrichment R
13,B13,1.01 enrichment R
14,B14,0.701 enrichment R
15,B15,0.574 enrichment R
16,B16,0.953 enrichment R
17,B17,0.376 enrichment R
18,B18,1.65 enrichment R
19,B19,1.74 enrichment R
20,B20,0.921 enrichment R
21,B21,0.681 enrichment R
22,B22,0.959 enrichment R
